# Reference: the supplement of paper PMC8728848
# Some of the results follow.
# B1: Cohesin-hDCIR (Homo sapiens) (protein)
# chain: LDDLDAVRIKVDTVNAKPGDTVRIPVRFSGIPSKGIANCDFVYSYDPNVLEIIEIEPGDIIVDPNPDKSFDTAVYPDRKIIVFLFAEDSGTGAYAITKDGVFATIVAKVKEGAPNGLSVIKFVEVGGFANNDLVEQKTQFFDGGANVGDTTEPATPTTPVTTPTTTDDLDAASQKYSQLLEKKTTKELVHTTLECVKKNMPVEETAWSCCPKNWKSFSSNCYFISTESASWQDSEKDCARMEAHLLVINTQEEQDFIFQNLQEESAYFVGLSDPEGQRHWQWVDQTPYNESSTFWHPREPSDPNERCVVLNFRKSPKRWGWNDVNCLGPQRSVCEMMKIHLHHHHHH
# Legend:
# Test in all cases: glycan array binding signal (z-score within array); higher = stronger binding
# Conditions in all cases: glycan notation: IUPAC condensed, linker removed
# [1] = biological target: Neu5Ac(a2-6)Gal(b1-4)GlcNAc(b1-2)Man(a1-3)[Man(a1-6)]Man(b1-4)GlcNAc(b1-4)GlcNAc
# Summary of the method: (§1)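 The Consortium for Functional Glycomics database supplied 3228 glycan arrays, of which those lacking an available protein sequence were dropped. The binding signal, a within-array Z-score, was averaged across arrays of the same protein sequence and across linkers. Negative scores can be read as non-binding.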
# [2] = biological target: Neu5Ac(a2-6)Gal(b1-4)GlcNAc(b1-2)Man(a1-3)[Neu5Ac(a2-3)Gal(b1-4)GlcNAc(b1-2)Man(a1-6)]Man(b1-4)GlcNAc(b1-4)GlcNAc
# Summary of the method: as §1
# [3] = biological target: Neu5Ac(a2-6)Gal(b1-4)GlcNAc(b1-2)Man(a1-3)[Neu5Ac(a2-6)Gal(b1-4)GlcNAc(b1-2)Man(a1-6)]Man(b1-4)GlcNAc(b1-4)GlcNAc
# Summary of the method: as §1
# [4] = biological target: Neu5Ac(a2-6)Gal(b1-4)GlcNAc(b1-2)Man(a1-3)[Neu5Ac(a2-6)Gal(b1-4)GlcNAc(b1-2)Man(a1-6)]Man(b1-4)GlcNAc(b1-4)[Fuc(a1-6)]GlcNAc
# Summary of the method: as §1
# [5] = biological target: Neu5Ac(a2-6)Gal(b1-4)GlcNAc(b1-2)Man(a1-6)Man(b1-4)GlcNAc(b1-4)GlcNAc
# Summary of the method: as §1
# [6] = biological target: Neu5Ac(a2-6)Gal(b1-4)GlcNAc(b1-2)Man(a1-6)[Gal(b1-4)GlcNAc(b1-2)Man(a1-3)]Man(b1-4)GlcNAc(b1-4)GlcNAc
# Summary of the method: as §1
# [7] = biological target: Neu5Ac(a2-6)Gal(b1-4)GlcNAc(b1-2)Man(a1-6)[GlcNAc(b1-2)Man(a1-3)]Man(b1-4)GlcNAc(b1-4)GlcNAc
# Summary of the method: as §1
# [8] = biological target: Neu5Ac(a2-6)Gal(b1-4)GlcNAc(b1-2)Man(a1-6)[Man(a1-3)]Man(b1-4)GlcNAc(b1-4)GlcNAc
# Summary of the method: as §1
# [9] = biological target: Neu5Ac(a2-6)Gal(b1-4)GlcNAc(b1-2)[Neu5Ac(a2-6)Gal(b1-4)GlcNAc(b1-4)]Man(a1-3)[GlcNAc(b1-4)][Neu5Ac(a2-6)Gal(b1-4)GlcNAc(b1-2)[Neu5Ac(a2-6)Gal(b1-4)GlcNAc(b1-6)]Man(a1-6)]Man(b1-4)GlcNAc(b1-4)GlcNAc
# Summary of the method: as §1
# [10] = biological target: Neu5Ac(a2-6)Gal(b1-4)GlcNAc(b1-2)[Neu5Ac(a2-6)Gal(b1-4)GlcNAc(b1-4)]Man(a1-3)[GlcNAc(b1-4)][Neu5Ac(a2-6)Gal(b1-4)GlcNAc(b1-4)Man(a1-6)]Man(b1-4)GlcNAc(b1-4)GlcNAc
# Summary of the method: as §1
# [11] = biological target: Neu5Ac(a2-6)Gal(b1-4)GlcNAc(b1-2)[Neu5Ac(a2-6)Gal(b1-4)GlcNAc(b1-6)]Man(a1-6)[Neu5Ac(a2-6)Gal(b1-4)GlcNAc(b1-2)Man(a1-3)][GlcNAc(b1-4)]Man(b1-4)GlcNAc(b1-4)GlcNAc
# Summary of the method: as §1
# [12] = biological target: Neu5Ac(a2-6)Gal(b1-4)GlcNAc(b1-3)Gal(b1-3)GlcNAc
# Summary of the method: as §1
# [13] = biological target: Neu5Ac(a2-6)Gal(b1-4)GlcNAc(b1-3)Gal(b1-4)GlcNAc
# Summary of the method: as §1
# [14] = biological target: Neu5Ac(a2-6)Gal(b1-4)GlcNAc(b1-3)Gal(b1-4)GlcNAc(b1-2)Man(a1-3)[Neu5Ac(a2-6)Gal(b1-4)GlcNAc(b1-3)Gal(b1-4)GlcNAc(b1-2)Man(a1-6)]GalNAc
# Summary of the method: as §1
# [15] = biological target: Neu5Ac(a2-6)Gal(b1-4)GlcNAc(b1-3)Gal(b1-4)GlcNAc(b1-3)Gal(b1-4)GlcNAc
# Summary of the method: as §1
# [16] = biological target: Neu5Ac(a2-6)Gal(b1-4)GlcNAc(b1-3)Gal(b1-4)GlcNAc(b1-3)Gal(b1-4)GlcNAc(b1-2)Man(a1-3)[Neu5Ac(a2-6)Gal(b1-4)GlcNAc(b1-3)Gal(b1-4)GlcNAc(b1-3)Gal(b1-4)GlcNAc(b1-2)Man(a1-6)]GalNAc
# Summary of the method: as §1
# [17] = biological target: Neu5Ac(a2-6)Gal(b1-4)GlcNAc(b1-3)Gal(b1-4)GlcNAc(b1-3)GalNAc
# Summary of the method: as §1
# [18] = biological target: Neu5Ac(a2-6)Gal(b1-4)GlcNAc(b1-3)Gal(b1-4)GlcNAc(b1-3)[Neu5Ac(a2-6)Gal(b1-4)GlcNAc(b1-3)Gal(b1-4)GlcNAc(b1-6)]GalNAc
# Summary of the method: as §1
# [19] = biological target: Neu5Ac(a2-6)Gal(b1-4)GlcNAc(b1-3)Gal(b1-4)GlcNAc(b1-6)[Gal(b1-3)]GalNAc
# Summary of the method: as §1
# [20] = biological target: Neu5Ac(a2-6)Gal(b1-4)GlcNAc(b1-3)Gal(b1-4)[Fuc(a1-3)]GlcNAc(b1-3)Gal(b1-4)[Fuc(a1-3)]GlcNAc
# Summary of the method: as §1
# [21] = biological target: Neu5Ac(a2-6)Gal(b1-4)GlcNAc(b1-3)GalNAc
# Summary of the method: as §1
# [22] = biological target: Neu5Ac(a2-6)Gal(b1-4)GlcNAc(b1-3)[Neu5Ac(a2-6)Gal(b1-4)GlcNAc(b1-6)]GalNAc
# Summary of the method: as §1
# [23] = biological target: Neu5Ac(a2-6)Gal(b1-4)GlcNAc(b1-6)GalNAc
# Summary of the method: as §1
# [24] = biological target: Neu5Ac(a2-6)Gal(b1-4)GlcNAc(b1-6)[Gal(b1-3)GlcNAc(b1-3)]Gal(b1-4)Glc
# Summary of the method: as §1
# [25] = biological target: Neu5Ac(a2-6)Gal(b1-4)GlcNAc(b1-6)[Gal(b1-3)]GalNAc
# Summary of the method: as §1
# [26] = biological target: Neu5Ac(a2-6)Gal(b1-4)GlcNAc6S
# Summary of the method: as §1
# [27] = biological target: Neu5Ac(a2-6)GalNAc
# Summary of the method: as §1
# [28] = biological target: Neu5Ac(a2-6)GalNAc(b1-4)GlcNAc
# Summary of the method: as §1
# [29] = biological target: Neu5Ac(a2-6)GalNAc(b1-4)GlcNAc6S
# Summary of the method: as §1
# [30] = biological target: Neu5Ac(a2-6)GlcNAc(b1-4)GlcNAc
# Summary of the method: as §1
# [31] = biological target: Neu5Ac(a2-6)GlcNAc(b1-4)GlcNAc(b1-4)GlcNAc
# Summary of the method: as §1
binder,measurement,setting,value
B1,glycan array binding signal (z-score),[1],-0.595
same,glycan array binding signal (z-score),[2],-0.352
same,glycan array binding signal (z-score),[3],-0.136
same,glycan array binding signal (z-score),[4],1.95
same,glycan array binding signal (z-score),[5],-0.613
same,glycan array binding signal (z-score),[6],-0.261
same,glycan array binding signal (z-score),[7],0.473
same,glycan array binding signal (z-score),[8],-0.7
same,glycan array binding signal (z-score),[9],-0.567
same,glycan array binding signal (z-score),[10],-0.51
same,glycan array binding signal (z-score),[11],-0.637
same,glycan array binding signal (z-score),[12],-0.194
same,glycan array binding signal (z-score),[13],-0.112
same,glycan array binding signal (z-score),[14],1.27
same,glycan array binding signal (z-score),[15],-0.542
same,glycan array binding signal (z-score),[16],0.292
same,glycan array binding signal (z-score),[17],0.179
same,glycan array binding signal (z-score),[18],0.096
same,glycan array binding signal (z-score),[19],-0.633
same,glycan array binding signal (z-score),[20],-0.654
same,glycan array binding signal (z-score),[21],0.44
same,glycan array binding signal (z-score),[22],-0.591
same,glycan array binding signal (z-score),[23],-0.358
same,glycan array binding signal (z-score),[24],-0.24
same,glycan array binding signal (z-score),[25],0.064
same,glycan array binding signal (z-score),[26],-0.202
same,glycan array binding signal (z-score),[27],0.964
same,glycan array binding signal (z-score),[28],-0.194
same,glycan array binding signal (z-score),[29],-0.456
same,glycan array binding signal (z-score),[30],-0.676
same,glycan array binding signal (z-score),[31],-0.585
